# Among all 380,000 compounds or so, about 4,000 (1.1%) were called active. Inconclusive results, whose numbers are uncertain, are shown with a selection of clear calls. Calls follow the shape of the dose curve; as a rule, active = well fitted activation curve with a large enough effect; inconclusive = small, poorly fitted or top-dose-only effect; inactive = no such curve, though single readings can be large or run the other way. Potencies of inconclusive entries are doubtful fits and often do not repeat.
# Experiment: qHTS Assay to Identify Small Molecule Activators of BRCA1 Expression; also: nearly all actives have a fitted effect of over 80% in size
# Settings: MCF7-BRCA1-FFLuc reporter, luminescence, 48 h; activation: at 46.1 µM (top of the series), scaled: vehicle 0%, 10 µM genistein 100% unless noted
# Method in brief: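 Luminescence from a BRCA1-driven firefly luciferase in MCF7 cells was read after 48 h compound exposure at 37 C. Data normalized against DMSO and a 10microM genistein activation control, then curve-fitted across the titration.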
# Potency is read from the fitted curve at half-maximal effect; tags tell the direction and shape of the fitted curve.
Compound,Potency,activation
COc1ccc(CC(=O)O/N=C(\N)c2ccc(OC)cc2)cc1,"inconclusive: 10 µM [activator, partial curve, poor fit]",
Nc1ccc(CSc2ccccc2)cc1,"inconclusive: 12.6 µM [activator, partial curve, poor fit]",
CCN1CCN(c2ccc(NC(=O)c3ccc(Br)o3)cc2)CC1,"inconclusive: 7.08 µM [activator, partial curve, poor fit]",
O=C(c1ccco1)N1CCN(c2ccc(N3CCCCC3)nn2)CC1,active: 10 µM,
Cc1ccc(Nc2nc(N)c([N+](=O)[O-])c(N3CCOCC3)n2)cc1C,inactive,
Cc1ccc(-c2nnc(-c3cc(C)on3)o2)cc1,"inconclusive: 1.41 µM [activator, full curve, poor fit]",
CCn1cc(Cl)c(C(=O)Nc2ccc3c(c2)OCCO3)n1,"inconclusive: 2 µM [activator, partial curve, poor fit]",
CCCS(=O)(=O)NCc1cn2c(C)csc2n1,"inconclusive: 11.2 µM [activator, partial curve, poor fit]",
C/C(=N\NC(=O)c1cc2c(s1)CCC(C)C2)c1cccnc1 (stereo not given),"inconclusive: 10 µM [activator, partial curve, poor fit]",
CC(C)(C)N=C1NN=C(c2ccc(Cl)cc2)CS1,"inconclusive: 1 µM [activator, full curve, poor fit]",
O=c1c2ccccc2sc2ccccc12,"inconclusive: 25.1 µM [activator, single point]",
O=C(CCc1nnc(CCCc2ccccc2)o1)NC(C1CC1)C1CC1,"inconclusive: 14.1 µM [activator, partial curve, poor fit]",
O=C(Nc1ccc2nc(SCCOc3ccccc3)sc2c1)c1ccco1,inactive,
Cc1ccc(-c2noc(CN3CCOCC3)n2)cc1,"inconclusive: 35.5 µM [activator, single point]",
COc1cc2c(cc1OC)CN(c1ccc(C(F)(F)F)cn1)CC2,active: 12.6 µM,
COc1ccc(/C=N/Nc2cc(OC)ncn2)cc1,"inconclusive: 0.501 µM [activator, full curve, poor fit]",
O=C(O)c1ccccc1NS(=O)(=O)c1ccc2ccccc2c1,active: 12.6 µM,
CCOc1ccc(-c2cn(-c3ccc(OC)cc3)c(SC)n2)cc1,active: 11.2 µM,
CCc1noc(-c2ccc(N3CCC(C)CC3)c([N+](=O)[O-])c2)n1,active: 8.91 µM,
CC(C)(C)c1csc(N/N=C/c2cccnc2)n1,"inconclusive: 2.24 µM [activator, full curve, poor fit]",
CC1CCCN(C(=O)Nc2ccc(Br)cc2Cl)C1 (stereo not given),"inconclusive: 11.2 µM [activator, partial curve, poor fit]",
CCOC(=O)c1nc(NCCc2ccccc2)sc1C,"inconclusive: 17.8 µM [activator, partial curve, poor fit]",
COc1ccc(NC(=O)c2cc(-c3cccs3)on2)cc1,active: 4.47 µM,
COC(=O)c1ccc(NC(=O)Nc2ccc3c(c2)nc(C)n3C)cc1,"inconclusive: 2.24 µM [activator, full curve, poor fit]",
COc1cccc(-c2cc(C(=O)NC3CCCCC3)no2)c1,"inconclusive: 1.78 µM [activator, full curve, poor fit]",

Compound,Potency,activation
CC(C)CSc1nnc2c(n1)[nH]c1ccccc12,"inconclusive: 3.16 µM [activator, partial curve, poor fit]",
Cc1ccc(NC(=O)c2ccc(COc3ccccc3)o2)nc1,"inconclusive: 11.2 µM [activator, partial curve, poor fit]",
O=C(OCc1ccccc1F)c1ccc2c(c1)-c1ccccc1C2=O,active: 7.08 µM,
COc1cc(/C=C/c2cc(C(=O)O)c3ccccc3n2)ccc1OC(F)F,active: 2.51 µM,
C=CCNc1oc(C2CCCC2)nc1C#N,inactive,
O=C(CSC(=S)N1CCCCC1)c1c(F)cccc1F,"inconclusive: 1.78 µM [activator, full curve, poor fit]",
COCc1cn(-c2nc3ccccc3s2)nn1,active: 11.2 µM,
COC(=O)[C@]12CCCCC=C1N(Cc1cccc3ccccc13)C(=O)[C@H](CC(=O)NCc1cccc(C(F)(F)F)c1)C2,inactive,
O=C(Nc1ccc2[nH]ncc2c1)c1ccc(F)cc1,"inconclusive: 2.51 µM [activator, full curve, poor fit]",
COc1ccc2cc3cc(C(=O)NCc4cccnc4)oc3nc2c1,"inconclusive: 14.1 µM [activator, partial curve, poor fit]",
Cc1ccc(-c2nnc(N)s2)cc1,"inconclusive: 11.2 µM [activator, partial curve, poor fit]",
Cc1nc(N)sc1N=Nc1ccccc1C(F)(F)F,active: 7.08 µM,
COCCN(Cc1cc2ccc(C)c(C)c2nc1Cl)C(=O)N1CCOCC1,inactive,
O=C(Nc1ccc(Cl)cc1)OCc1cncs1,active: 11.2 µM,
COc1ccc(N=Nc2ccc(N)nc2N)cc1,"inconclusive: 1 µM [activator, full curve, poor fit]",
C[C@H](NC(=O)c1nc[nH]c1C(=O)NC(c1ccccc1)c1ccccc1)C(=O)OC(C)(C)C,inactive,
COc1ccc(-c2coc3cc(OC4OC(CO)C(O)C(O)C4O)cc(O)c3c2=O)cc1 (stereo not given),"inconclusive: 1.41 µM [activator, full curve, poor fit]",
CCCOC(=O)c1ccc(NC(=O)CC(C)(C)C)cc1,"inconclusive: 15.8 µM [activator, partial curve, poor fit]",
CCSc1nnc(-c2ccc(OC)cc2)o1,"inconclusive: 3.16 µM [activator, partial curve, poor fit]",
O=C(NCC1CC1)Nc1ccccc1F,inactive,
COc1ccc(NC(=O)c2cccc(NC(=O)c3ccccc3)c2)cc1,"inconclusive: 1.12 µM [activator, full curve, poor fit]",
O=C(CNC(=S)N(CCCN1CCOCC1)Cc1cccs1)NC1CCCCC1,inactive,
O=C(COc1ccc(F)c(Cl)c1)NC(=O)NC1CCCC1,"inconclusive: 31.6 µM [activator, single point]",
CSC1=NNC(c2ccc(C(C)(C)C)cc2)=NN1,"inconclusive: 20 µM [activator, partial curve, poor fit]",
COc1ccc(-c2nn(-c3ccccc3)cc2C#N)cc1,active: 3.98 µM,

Compound,Potency,activation
CC(=O)NC(Cc1ccc(O)cc1)C(=O)NCC(N)C(=O)c1ccccc1 (stereo not given),inactive,
O=[N+]([O-])c1ccc2c(c1N1CCCCC1)=NC1(CCCCC1)[N+]=2[O-],inactive,
CC(C)c1ccc(NC(=O)C(c2ccccc2)N(Cc2ccco2)C(=O)CC2NC(=O)NC2=O)cc1 (stereo not given),inactive,
CC(C)c1ccc(CNc2ncc(Br)cn2)cc1,"inconclusive: 11.2 µM [activator, partial curve, poor fit]",
CC(C)c1ccc2nc(NC(=O)C3CC3)sc2c1,"inconclusive: 1 µM [activator, full curve, poor fit]",
COc1ccc(OC)c(NC(=O)CCN2CCN(c3ccccc3F)CC2)c1,inactive,
CC1CCCCN1C(=O)CSc1nnc(-c2ccco2)o1 (stereo not given),active: 3.16 µM,
CC(=O)c1cccc(OCc2cc(C(=O)N(C)Cc3nccs3)no2)c1,"inconclusive: 17.8 µM [activator, single point]",
CCOC(=O)c1c(C)[nH]c(C(=O)OCC(=O)c2ccccc2)c1C,"inconclusive: 1.26 µM [activator, full curve, poor fit]",
CCOC(=O)C1C(C(C)=O)=C(c2ccccc2)c2ccccc2N1S(=O)(=O)C(F)(F)F (stereo not given),inactive,
CCCc1ccc(C(=O)/C=C/N(C)C)cc1,active: 12.6 µM,
CCOC(=O)C1(Cc2ccccc2Cl)CCN(C(=O)CN2CCOC2=O)CC1,active: 12.6 µM,
CCOc1ccc(N/C=C/C(=O)c2ccc(OC)c(OC)c2)cc1,"inconclusive: 15.8 µM [activator, partial curve, poor fit]",
O=C(Nc1ccc2nc(-c3cccs3)[nH]c2c1)c1ccco1,"inconclusive: 14.1 µM [activator, partial curve, poor fit]",
c1ccc(Oc2ccc(-c3ccn[nH]3)cc2)cc1,"inconclusive: 8.91 µM [activator, partial curve, poor fit]",
c1ccc(C2=Nc3ccccc3NC(c3ccccc3)C2)cc1 (stereo not given),"inconclusive: 22.4 µM [activator, single point]",
CCSc1ncc(/C=N/Nc2ccc([N+](=O)[O-])cc2)n1C,"inconclusive: 1.58 µM [activator, full curve, poor fit]",
c1cnc2c(c1)ncc1cscc12,inactive,
CN(C)c1ccc(-c2nnc(-c3ccccc3F)o2)cc1,,inconclusive: 16.4% [activator]
CC(C)c1ccccc1NC(=S)NC(=O)C1CCCCC1,inactive,
CCOc1ccc(N(CC(=O)Nc2cccc(C)c2)S(C)(=O)=O)cc1,"inconclusive: 11.2 µM [activator, partial curve, poor fit]",
COc1ccc(-c2cn(-c3ccccc3)nc2CO)cc1,"inconclusive: 11.2 µM [activator, partial curve, poor fit]",
O=C(Nc1cccc(O)c1)c1cc(-c2ccc3c(c2)OCO3)on1,inactive,
O=C(/C=C/c1ccc[nH]1)c1ccccc1,"inconclusive: 35.5 µM [activator, single point]",
S=c1[nH]nc(COc2cccc(Cl)c2)n1Cc1ccccc1,inactive,

# Source: PubChem BioAssay AID624202 (National Center for Advancing Translational Sciences (NCATS), 2012)
